# Source: PMC4336329 (PLoS ONE, 2015)
# Hit rate of the full screen: of about 310,000 compounds, about 2,200 (0.71%) showed an effect of 50% or more. The effect is printed as a negative number. The list shows a part of the results.
# Target: human ether-à-go-go-related gene (hERG) potassium channel (human, UniProt Q12809)
# Experiment: primary screen, population patch clamp on CHO cells stably expressing hERG
# Sequence of human ether-à-go-go-related gene (hERG) potassium channel (Q12809 whole entry, looked up): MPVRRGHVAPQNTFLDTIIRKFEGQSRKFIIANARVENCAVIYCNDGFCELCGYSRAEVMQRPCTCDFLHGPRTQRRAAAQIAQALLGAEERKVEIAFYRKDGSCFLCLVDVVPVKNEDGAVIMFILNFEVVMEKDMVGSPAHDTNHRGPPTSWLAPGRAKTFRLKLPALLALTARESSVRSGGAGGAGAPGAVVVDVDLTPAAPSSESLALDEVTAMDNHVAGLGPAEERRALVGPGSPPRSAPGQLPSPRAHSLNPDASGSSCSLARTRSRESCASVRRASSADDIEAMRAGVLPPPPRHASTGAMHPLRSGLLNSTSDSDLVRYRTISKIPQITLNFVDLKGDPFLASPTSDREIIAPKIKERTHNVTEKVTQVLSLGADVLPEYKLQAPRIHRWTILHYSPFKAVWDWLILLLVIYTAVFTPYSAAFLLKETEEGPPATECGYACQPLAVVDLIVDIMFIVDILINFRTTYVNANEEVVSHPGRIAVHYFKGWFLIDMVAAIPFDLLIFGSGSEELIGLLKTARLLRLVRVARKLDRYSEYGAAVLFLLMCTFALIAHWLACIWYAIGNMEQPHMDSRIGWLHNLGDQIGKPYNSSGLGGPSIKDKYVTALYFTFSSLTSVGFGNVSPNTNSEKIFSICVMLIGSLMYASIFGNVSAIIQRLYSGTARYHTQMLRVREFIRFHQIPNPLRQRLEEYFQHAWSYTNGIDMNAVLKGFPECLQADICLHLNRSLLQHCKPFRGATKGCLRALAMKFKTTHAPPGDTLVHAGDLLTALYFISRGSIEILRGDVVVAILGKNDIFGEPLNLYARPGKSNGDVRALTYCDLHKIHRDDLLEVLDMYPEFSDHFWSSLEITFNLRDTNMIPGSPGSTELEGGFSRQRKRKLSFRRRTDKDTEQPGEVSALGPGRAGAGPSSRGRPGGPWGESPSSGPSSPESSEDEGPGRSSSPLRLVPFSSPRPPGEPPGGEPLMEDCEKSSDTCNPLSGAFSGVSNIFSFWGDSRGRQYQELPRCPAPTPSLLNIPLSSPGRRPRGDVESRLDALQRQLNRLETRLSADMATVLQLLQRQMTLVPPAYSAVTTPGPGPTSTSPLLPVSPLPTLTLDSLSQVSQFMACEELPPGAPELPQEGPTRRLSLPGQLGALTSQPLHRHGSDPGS
row,Structure (SMILES),"hERG current change (%, negative = inhibition) at 1uM [%]"
1,COc1ccccc1NC1=C(Cl)C(=O)N(c2ccccc2)C1=O,-1.68
2,O=C(OCCN(C1=NS(=O)(=O)c2ccccc21)c1ccccc1Cl)c1ccc(Cl)cc1,-0.504
3,C=C1CCN(c2ccc(C(=O)O)cc2[N+](=O)[O-])CC1,16.8
4,COc1cc(NC(=O)c2cccc(Cl)c2)c(OC)cc1NC(=O)CN1CCOCC1,-10.2
5,O=C(NCCc1ccccc1)C(=O)NCC1OCCN1S(=O)(=O)c1ccc(F)cc1 (centres unmarked),2.05
6,O=C(OCc1cccc([N+](=O)[O-])c1)c1cccnc1Cl,0.438
7,O=C(Nc1ccncc1)C1CCC(CNS(=O)(=O)c2cccc3nsnc23)CC1 (centres unmarked),4.39
8,O=C(CCN1C(=O)c2ccccc2C1=O)Nc1nc2ccccc2s1,8.11
9,CN(C)CCC1Sc2ccccc2Oc2ccccc21.O=C(O)C(=O)O (centres unmarked),5.08
10,CCN(CC)CCCNc1ncnc2scc(-c3ccc(F)cc3)c12,2.18
11,CCOC(=O)[C@H]1[C@H]2COc3ccc(C)cc3[C@@H]2N2C(=O)CN(Cc3ccc(Cl)cc3)C(=O)[C@@]12C,11.7
12,CC(OC(=O)CCOc1ccccc1)C(=O)NC1CC1 (centres unmarked),14.1
13,O=C(O)c1ccc(NCc2cccnc2)c([N+](=O)[O-])c1,18.8
14,C=CCN(CC=C)C(=S)Nc1cc(Cl)ccc1OC,12.4
15,O=C(CCc1ccccc1)NC(=S)Nc1cc(C(F)(F)F)ccc1N1CCOCC1,5.7
16,O=C1/C(=C/c2ccc(Cl)cc2)NC(=S)N1Cc1cccnc1,9.26
17,Cc1ccc(O)c(NC(=O)c2onc(C)c2Cl)c1,10.8
18,O=C(/C=C/c1ccccc1Cl)N(c1ccccn1)C1CCCCC1,7.03
19,COc1cc(C(=O)N2CCN(c3ccccc3O)CC2)ccc1OCC(=O)N1CCOCC1,5.73
20,Cc1ccc(-c2nc3ccccc3s2)cc1NC(=S)NC(=O)c1ccccc1,20.5

row,Structure (SMILES),"hERG current change (%, negative = inhibition) at 1uM [%]"
1,CC(NC(=O)CCNC(=O)c1ccco1)c1ccccc1 (centres unmarked),14.4
2,Cc1ccc(C2=NN(C(=S)Nc3ccccc3)C(c3ccco3)C2)cc1 (centres unmarked),10.8
3,Cc1c(CN2CCCCC2C)c(=O)n(-c2ccccc2)n1C (centres unmarked),4.08
4,Cc1ccc(C)c(S(=O)(=O)N2CCCOC2CNC(=O)C(=O)NC2CCCCC2)c1 (centres unmarked),2.9
5,C=C(C)COc1ccc(-c2[nH]ncc2-c2ccc(OC)cc2)c(O)c1,13.9
6,Cc1nn(-c2ccccc2)c(C)c1/C=N/Nc1nc2ccccc2[nH]1,0.666
7,C=CCn1c(O)c(C(C)=Nc2cccc(C(=O)O)c2)c(=O)[nH]c1=O,8.55
8,CCOc1ccc(CN(C)C(=O)NNC(=O)c2ccc(C)cc2)cc1OC,13.6
9,CCC(C)C1NC(=S)N(Cc2ccccc2)C1=O (centres unmarked),0.307
10,Cc1cccc(NC(=O)c2cc(NC(=O)CCCC(=O)O)ccc2Cl)n1,7.72
11,O=C(CC(C(=O)O)c1cccc(Br)c1)c1ccc(Cl)cc1 (centres unmarked),17.8
12,Cl.NCC12CC3CC(C1)CC(c1ccc(Cl)cc1)(C3)C2,10.1
13,Cc1ccc(S(=O)(=O)N(C)c2ccc(OCC(=O)NCC3(N(C)C)CCCCC3)cc2)cc1,-41.4
14,CCCCNC(=O)Nc1nnc(-c2ccc(OCC)cc2)o1,13.3
15,CSc1ccc(S(=O)(=O)Nc2ccccc2C(=O)N2CCOCC2)cc1,11.6
16,Cc1cccc(C(=O)NC(=S)NNC(=O)COc2c(C)cccc2C)c1,12.9
17,Cc1cccc(OCC(=O)Oc2ccc(Cl)cc2)c1,4.49
18,O=C(CCl)c1ccc(Cc2ncc(C(F)(F)F)cc2Cl)s1,17
19,Cc1cccc(-c2nnc(NC(=O)c3cccs3)s2)c1,-0.719
20,CCCOC(=O)c1ccc(O)cc1,14.2

row,Structure (SMILES),"hERG current change (%, negative = inhibition) at 1uM [%]"
1,O=C(CSc1ncn(-c2ccccc2)n1)NCc1ccccc1,17.9
2,Cc1ccc2nc(C)cc(C(=O)N3CCCC(CO)(Cc4ccccc4C)C3)c2c1 (centres unmarked),5.68
3,COCCn1c(SCC(=O)NC2CCCCC2)nnc1-c1ccncc1,13.4
4,CCc1ccc(NC(=S)N(CCCN2CCOCC2)Cc2ccco2)cc1,7.6
5,COc1ccc2oc3ccc(OC)cc3c(=O)c2c1,0.614
6,S=C(NCc1ccc2c(c1)OCO2)Nc1ccc2nsnc2c1,11.5
7,Cc1ccccc1NC(=O)Cc1nnc(SCc2ccc(Cl)c(Cl)c2)n1C,6.67
8,Cc1ccc(S(=O)(=O)NC2CCCC2)cc1C,0.263
9,CCCCCn1c(CCNC(=O)CCC)nc2ccccc21,-31.2
10,COc1cc(CNC2CCCCCC2)cc(OC)c1,10.7
11,COCC(=O)N(Cc1cc2cccc(C)c2[nH]c1=O)c1ccccc1,13.3
12,O=C(C1CC(=O)N(C2CCCCC2)C1)N1CCN(c2ccccc2)CC1 (centres unmarked),9.57
13,CCCC1=NCCn2cccc21.O=C(O)/C=C/C(=O)O,9.06
14,COc1cc(/C=C/C(=O)NCc2cccnc2)cc(OC)c1OC,-0.588
15,O=C(CSc1nnc(-c2cccnc2)o1)Nc1nccs1,-0.554
16,Cc1csc(SCC(=O)Nc2cccc3nsnc23)n1,0.429
17,Cc1ccccc1-c1nc2cc(NC(=O)C3CC3)ccc2o1,12.1
18,CNc1c([N+](=O)[O-])cnn1-c1cccc(Cl)n1,18.3
19,NC(=O)CSc1nnnn1-c1ccccc1Cl,4.36
